Laboratory results taken from PubChem BioAssay AID1240 (Sanford-Burnham Center for Chemical Genomics, 2008).
The whole screen tested about 50,000 compounds, of which about 800 (1.6%) showed an effect of 50% or more. Some of the results follow.

What follows are compounds tested against Bcl-2-like protein 10 (Homo sapiens) (UniProt Q9HD36) (assay: TR3 peptide-Bcl-B binding displacers, biochemical primary FP assay, phenotype converters (AID 1240;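 also: 0% = Bcl-B with tracer peptide and DMSO and 100% = tracer peptide lacking Bcl-B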)). Conditions: GST-Bcl-B / FITC-TR3 peptide fluorescence polarization; stronger effect = higher value; compound at 3.75 mg/L.
Sequence of UniProt Q9HD36 (Q9HD36 whole entry, looked up): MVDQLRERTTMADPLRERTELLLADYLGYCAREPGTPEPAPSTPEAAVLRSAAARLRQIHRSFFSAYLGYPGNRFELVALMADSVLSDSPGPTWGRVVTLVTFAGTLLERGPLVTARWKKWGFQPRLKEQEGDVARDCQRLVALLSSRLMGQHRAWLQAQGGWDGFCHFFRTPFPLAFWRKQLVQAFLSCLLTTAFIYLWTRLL

Row | Structure (SMILES) | displacement [%]
1 | O=C(CC1SC(=Nc2ccccc2)N(c2ccccc2)C1=O)Nc1cccc(C(=O)O)c1 (stereo unspecified) | -1
2 | CC(C)(C)C1CCc2c(sc3[nH]c(=S)[nH]c(=O)c23)C1 (stereo unspecified) | -14.6
3 | O=C(c1ccc2c(c1)OCO2)N1CCOCC1 | 0.5
4 | COc1cc(/C=N/NS(=O)(=O)c2ccc(Cl)cc2)cc(OC)c1OC | -7.4
5 | COP(=O)(OC)C(Nc1cccc([N+](=O)[O-])c1)c1cccc([N+](=O)[O-])c1 (stereo unspecified) | -15.4
6 | O=C(O)c1cccc(S(=O)(=O)N2CCCCCC2)c1 | -4.5
7 | O=C(/C=C/Nc1ccc([N+](=O)[O-])cc1Br)c1ccccc1 | 6.5
8 | O=C1NC(=O)N(c2ccccc2)C(=O)/C1=C\c1ccc(Br)o1 | -3.2
9 | Cc1ccc(NC(=O)COC(=O)c2ccn(C)n2)cc1 | 13.5
10 | COCCOC(=O)c1ccc(NC(=O)COc2ccc(C)cc2)cc1 | -5.3
11 | Cn1/c(=N\N=C\c2ccc(Br)cc2)sc2ccccc21 | -6
12 | Cc1ccc(NC(=O)C(c2ccccc2)c2ccccc2)c(C)c1 | 14.9
13 | C=C(C)COc1ccc2cc(-c3nc4ccccc4s3)c(=O)oc2c1 | 66.5
14 | COc1ccc(C2/C(=C(\O)c3ccc(F)cc3)C(=O)C(=O)N2CCCCCC(=O)O)cc1OC (stereo unspecified) | -2.9
15 | O=C(NNC(=O)c1ccc(Cl)c([N+](=O)[O-])c1)c1ccccc1 | -4.4
16 | O=C1NC2(c3ccccc3)NC(=O)NC2(c2ccc(C34NC(=O)NC3(c3ccccc3)NC(=O)N4)cc2)N1 (stereo unspecified) | 1.8
17 | S=C(NCc1ccco1)Nc1ccccc1 | -3.5
18 | COC(=O)C1=CNC=C(C(=O)OC)C1c1cccc(Oc2ccccc2)c1 | 36.3
19 | COc1ccc(/C=C/C(=O)NC(C)Cc2ccccc2)cc1OC (stereo unspecified) | -5.6
20 | O=C1/C(=C\c2ccsc2)SC(=S)N1c1cccc(C(F)(F)F)c1 | 14.5
21 | COc1cccc(OCc2nc(-c3ccccn3)no2)c1 | -8.6
22 | Cc1ccc([N+](=O)[O-])cc1N1C(=O)C2C(C1=O)C1(C)C(=O)C2(C)C(c2ccccc2)=C1c1ccccc1 (stereo unspecified) | 2.2
23 | N#C/C(=C/c1ccc(-c2ccccc2C(=O)O)o1)C(=O)Nc1cccc(Br)c1 | -11.7

Row | Structure (SMILES) | displacement [%]
24 | CC1CN(C(=O)c2cnn(-c3ccccc3)c2NC(=O)c2cccc(F)c2)CC(C)O1 (stereo unspecified) | -1.7
25 | CC(=O)c1ccc(NS(=O)(=O)c2ccccc2[N+](=O)[O-])cc1 | -1.3
26 | Cc1ccc(-c2nn(-c3ccccc3)cc2C=O)o1 | -0.3
27 | O=[N+]([O-])c1cccc(S(=O)(=O)Nc2ccc(Nc3ccccc3)cc2)c1 | 3
28 | CC(=O)NC(CC(C)C)C(=O)NC(=O)NCc1ccccc1 (stereo unspecified) | -2.7
29 | CC(=O)Nc1ccc(-c2nc(-c3ccccc3)c(-c3ccc(Br)cc3)[nH]2)cc1 | 6.9
30 | COc1cccc(C2NC(=O)NC(C)=C2C(=O)Nc2ccc(C)c(Cl)c2)c1OC (stereo unspecified) | 11.3
31 | COc1ccc(C(=O)NCc2ccc(S(N)(=O)=O)cc2)cc1[N+](=O)[O-] | 0.5
32 | Nc1c(C(=O)c2ccccc2)c(-c2ccccc2)nc2nonc12 | -3.4
33 | CC(C)N1CCN(C(=O)c2ccc(-c3ccccc3)cc2)CC1 | -74.4
34 | O=C(Nc1cccc(F)c1)/C(=C\c1cccs1)NC(=O)c1cccs1 | 1.3
35 | COc1ccc(CCNC2CC(=O)N(c3ccc(C)cc3)C2=O)cc1 (stereo unspecified) | -4.7
36 | CCOC(=O)c1cnn2c(C)cc(-c3ccc(OC)cc3)nc12 | 6.8
37 | O=c1oc2c3c4c(cc2cc1CCO)CCCN4CCC3 | 75.8
38 | O=C(Nc1cccc(Cl)c1)C1(c2ccccc2)CC1(Cl)Cl (stereo unspecified) | -5.3
39 | COC(=O)c1c(NC(=S)Nc2ccccc2)sc2c1CCCC2 | -8.7
40 | COc1ccc(OC)c(NC2=NC3(CCCC3)N=C(N)N2)c1 | -3.5
41 | CCc1nc2c(C)cc(C)cc2c(N)c1C | -17.9
42 | O=P(c1ccccc1)(c1ccccc1)c1nc(-c2ccc(Cl)cc2)oc1N1CCOCC1 | -2
43 | CCCCC/C(C)=C(\C#N)C(=O)OCC | 20.9
44 | Cc1ccc(C)c(-c2csc(N)c2C(=O)OC(C)C)c1 | -4.4
45 | O=[N+]([O-])c1ccc(OCC(O)CN2CCCCC2)cc1 (stereo unspecified) | -3.8
46 | O=C(CSc1nnc(CN2C(=O)c3cccc4cccc(c34)C2=O)n1-c1ccccc1)NCc1ccco1 | 1

Row | Structure (SMILES) | displacement [%]
47 | Cc1cc(F)ccc1NC(=O)c1ccccc1 | 2.3
48 | Cc1cc(Cl)ccc1OCC(=O)Nc1ccc2ccccc2c1 | 2.1
49 | COc1cccc2c1NC(c1ccccc1Cl)C1CC=CC21 (stereo unspecified) | 20.4
50 | COC(=O)c1sc(NC(=O)C2CCCC2)c(C(=O)OC)c1C | -5.9
51 | O=C(NNC(=O)c1ccc2ccccc2c1)c1ccc(Cl)cc1 | -5.2
52 | CCOC(=O)c1cnn(-c2ccccc2)c1NC(=O)c1cccc(F)c1 | -4.2
53 | O=C(O)c1ccccc1C=Nc1ccc2[nH]c(=O)[nH]c2c1 | 6
54 | COc1ccccc1/C=C1\SC(=N)N(c2ccc(F)cc2)C1=O | -8.6
55 | O=C(c1nn2c(c1Br)NC(c1cccs1)CC2C(F)(F)F)N1CCCC1 (stereo unspecified) | -1.1
56 | COc1ccc(C2CC(=O)C3=C(C2)Nc2ccccc2NC3c2c(Cl)cccc2Cl)cc1 (stereo unspecified) | 15
57 | CCOC(=O)c1sc(NC(=O)COc2c(C)cccc2C)c(C(=O)OCC)c1C | 0
58 | COc1cccc(C2/C(=C(\O)c3ccccc3)C(=O)C(=O)N2c2cccnc2)c1 (stereo unspecified) | -3.6
59 | Cc1ccc(OCCCCNC(=O)C(O)(c2ccc(F)cc2)c2ccc(F)cc2)cc1 | 2.2
60 | Cc1ccccc1OCC(=O)Nc1ccc(Cl)c(C(F)(F)F)c1 | -9.7
61 | CC(=O)Nc1ccc(C(=O)/C=C/c2ccc(/C=C/C(=O)c3ccc(NC(C)=O)cc3)cc2)cc1 | 8.5
62 | O=C(CCc1ccccc1)Nc1ccc(Cl)cn1 | -10.4
63 | CCc1ccccc1NC(=O)C1(c2ccccc2)CC1(Cl)Cl (stereo unspecified) | -14.1
64 | COc1ccccc1NCN1C(=O)CSC1=O | 17.7
65 | O=C(Nc1ccc(Cl)c(C(F)(F)F)c1)c1ccccc1I | 0
66 | CS(=O)(=O)N1CCN(Cc2ccccc2F)CC1 | 13.2
67 | CCCOCc1ccc(O)c2ncccc12 | 15.4
68 | O=C1CC(N2CCN(c3ncccn3)CC2)C(=O)N1c1ccc(Br)cc1 (stereo unspecified) | -4.1
69 | Cc1onc(-c2ccccc2Cl)c1C(=O)NC12CC3CC(CC(C3)C1)C2 | 1

Row | Structure (SMILES) | displacement [%]
70 | Cc1ccc(Cl)cc1-c1ccc(C=Nc2ccc(N3CCOCC3)cc2)o1 | -10.4
71 | COc1ccc(-c2c3c(c(-c4ccccc4)n2-c2ccc(S(N)(=O)=O)cc2)C(=O)c2ccccc2C3=O)cc1 | -5
72 | O=C1/C(=C/C=C/c2ccccc2)SC(=S)N1CCS(=O)(=O)O | 16.7
73 | CCOc1ccc(NC(=S)NC2CCCC2)cc1 | -8.1
74 | Cc1ccc(C(=O)Nc2ccccc2C(=O)NC(C)C(=O)O)cc1 (stereo unspecified) | -4.9
75 | COc1ccc2c(c1OC)C(=O)N(c1ccccc1C)C2=O | -1.3
76 | COCCCNC(=O)c1c(-c2ccccc2Cl)noc1C | 12.1
77 | O=C(Nc1cc([N+](=O)[O-])ccc1C(=O)Nc1cccnc1)c1ccccc1 | 7.9
78 | CCOC(=O)c1ccc(P(=O)(C(C)(C)C)C(C)(C)C)cc1 | 33
79 | COc1ccc(Br)cc1/C=C/C(=O)Nc1c(C)cccc1C | 10
80 | O=C(Nc1ccccc1Cl)c1ccc(CN2CCOCC2)cc1 | 2.2
81 | Cc1ccc(N2C(=O)SC(Nc3ccc(C)c(Cl)c3)C2=O)cc1 (stereo unspecified) | 14.8
82 | CC(C)c1nnc(NC(=O)CSc2nnc3c(n2)[nH]c2ccccc23)s1 | -5.1
83 | O=C(NCc1ccco1)/C(=C/c1cccc(Oc2ccccc2)c1)NC(=O)c1ccccc1 | 7.8
84 | O=C(/C=C/c1ccc([N+](=O)[O-])cc1)NC(=S)Nc1ccccc1Cl | -3.4
85 | Cc1cc(=O)oc2cc(OCC(=O)OC(C)C)ccc12 | 1.9
86 | Cc1c(NC(=O)/C=C/c2cccc3ccccc23)c(=O)n(-c2ccccc2)n1C | 6.8
87 | COc1ccc(Nc2nc(-c3cc4cc(OC)ccc4oc3=O)cs2)cc1 | -3.6
88 | CCCCN1C(=O)/C(=C\c2ccco2)SC1=S | 5.6
89 | O=C1NC(=S)N/C1=C/c1ccc(OCc2ccccc2)c(Br)c1 | 47.7
90 | COc1ccc(N2CN=C3SC(CO)(CO)C(=O)N3C2)cc1 | 10.1
91 | COC(=O)c1c2nc3ccccc3sc-2cc(=O)c1N | 2
92 | COc1ccc(N2C(=O)/C(=C/c3ccc(OCC(=O)O)c(OC)c3)C(=O)NC2=S)cc1 | 6.4

Row | Structure (SMILES) | displacement [%]
93 | Cc1ccc(C(=O)Nc2ccc3c(c2)OCO3)o1 | 0
94 | CCc1ccc(NC(=O)C(=O)NCCCN2CCOCC2)cc1 | 12.3
95 | Clc1cccc(OCCCCCCN2CCOCC2)c1 | 4.7
96 | CC1=C(C(=O)OCc2ccccc2)C(c2ccccc2OC(C)C)CC(=O)N1 (stereo unspecified) | -6.4
97 | N/C(=N\OC(=O)COc1ccc2ccccc2c1)c1ccccn1 | 11
98 | O=C(Nc1ccccc1C(=O)Nc1ccncc1)c1cccs1 | -8.5
99 | COc1cc(CN2CCN(Cc3ccncc3)CC2)cc(OC)c1OC | 2.1
100 | Cc1ccc(C2CC(C(F)(F)F)n3nc(CO)c(Cl)c3N2)cc1 (stereo unspecified) | 1.8
101 | CC1(C)CC(=O)C2=C(C1)OC1=C(C(=O)CC(C)(C)C1)C2c1ccc(-c2ccccc2Cl)o1 | 8
102 | CCOc1ccc(C(=O)NCc2ccc3c(c2)OCO3)cc1 | 1.6
103 | CC1=CC(C)C2COC(c3ccccc3O)C1C2C (stereo unspecified) | 6.6
104 | O=C1/C(=C\c2cc([N+](=O)[O-])c(Cl)cc2Cl)Sc2ccccc21 | -9.3
105 | O=C(NCc1ccc2c(c1)OCO2)C(=O)Nc1ccccc1 | 17.3
106 | COc1cccc(/C=C2/SC(N)=NC2=O)c1 | 13.2
107 | O=[N+]([O-])c1ccccc1/C=N/Nc1nc(-c2ccccc2)cs1 | -0.4
108 | CCn1c2ccccc2c2cc(NC(=O)COc3ccccc3Cl)ccc21 | -10.1
109 | Cc1ccc(NC(=O)COc2cccc(Cl)c2)c(Br)c1 | -2
110 | CC1=C(C(=O)Nc2cccc(Cl)c2)C(c2ccccc2F)NC(=S)N1 (stereo unspecified) | 1.7
111 | Cc1ccc(C(=O)Nc2ccc3nn(-c4cccc([N+](=O)[O-])c4)nc3c2)cc1 | 10.9
